# Source: PMC9911399, “Two distinct binding modes provide the RNA-binding protein RbFox with extraordinary sequence specificity”
# Substitutions are numbered along the chain they refer to; changes in the protein carry UniProt numbers. The list shows a part of the results.
# B1: UAGGCCU (DNA:RNA)
# RNA: GGGAGACCGGAAUUCAGAUUGUCCUAGGCCUUUAAAUCCCGUCGUAGCCACCA
# DNA 1: CAATCTGAATTCCGGTCTCCC
# DNA 2: TGGTGGCTACGACGGGATT
# B2: GGAGUAG (DNA:RNA)
# RNA: B1 RNA with U25G, A26G, G27A, C29U, C30A, U31G
# DNA 1: CAATCTGAATTCCGGTCTCCC
# DNA 2: TGGTGGCTACGACGGGATT
# B3: CAACACC (DNA:RNA)
# RNA: B1 RNA with U25C, G27A, G28C, C29A, U31C
# DNA 1: CAATCTGAATTCCGGTCTCCC
# DNA 2: TGGTGGCTACGACGGGATT
# B4: AAGUACC (DNA:RNA)
# RNA: B1 RNA with U25A, G28U, C29A, U31C
# DNA 1: CAATCTGAATTCCGGTCTCCC
# DNA 2: TGGTGGCTACGACGGGATT
# B5: CGAUGAA (DNA:RNA)
# RNA: GGGAGACCGGAAUUCAGAUUGUCCCGAUGAAUUAAAUCCCGUCGUAGCCACCA
# DNA 1: CAATCTGAATTCCGGTCTCCC
# DNA 2: TGGTGGCTACGACGGGATT
# B6: AUUCUAA (DNA:RNA)
# RNA: B5 RNA with C25A, G26U, A27U, U28C, G29U
# DNA 1: CAATCTGAATTCCGGTCTCCC
# DNA 2: TGGTGGCTACGACGGGATT
# B7: GUGAAGU (DNA:RNA)
# RNA: B1 RNA with U25G, A26U, G28A, C29A, C30G
# DNA 1: CAATCTGAATTCCGGTCTCCC
# DNA 2: TGGTGGCTACGACGGGATT
# B8: UGCUAGA (DNA:RNA)
# RNA: B5 RNA with C25U, A27C, G29A, A30G
# DNA 1: CAATCTGAATTCCGGTCTCCC
# DNA 2: TGGTGGCTACGACGGGATT
# B9: CUGUAUG (DNA:RNA)
# RNA: B5 RNA with G26U, A27G, G29A, A30U, A31G
# DNA 1: CAATCTGAATTCCGGTCTCCC
# DNA 2: TGGTGGCTACGACGGGATT
# Biological target: T1, RBFOX1 RRM (Homo sapiens, UniProt Q9NWB1 109-208)
# T1 sequence: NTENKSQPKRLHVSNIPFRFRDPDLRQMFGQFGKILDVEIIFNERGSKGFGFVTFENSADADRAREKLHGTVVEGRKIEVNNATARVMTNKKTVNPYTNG
# Assay: EMSA; HiTS-Eq, 1 nM pool, 10 min; buffer printed only for the single-RNA assays: 10 mM Tris pH 7.5, 150 mM NaCl, 3.4 mM EDTA, 0.001% NP-40, 30 C
# Conditions: tags: His6 N-terminal (pET28a); label: 5' 32P
# Summary of the method: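 These values rest on relative association constants, computed from read-count changes of each RNA species versus the control reaction and normalised to the cognate motif. Reads came from free RNA recovered by 8% native PAGE after purified RbFox RRM (wild type or mutant) at increasing concentrations was equilibrated for 10 min in 50 µL with 1 nM of a 5′-radiolabelled pool with 7 randomized nucleotides and DNA-annealed flanks.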
row,Binder,binding signal
1,B1,0.0167 KA relative to UGCAUGU
2,B2,0.0152 KA relative to UGCAUGU
3,B3,0.00238 KA relative to UGCAUGU
4,B4,0.00279 KA relative to UGCAUGU
5,B5,0.0112 KA relative to UGCAUGU
6,B6,0.00399 KA relative to UGCAUGU
7,B7,0.0152 KA relative to UGCAUGU
8,B8,0.0242 KA relative to UGCAUGU
9,B9,0.0231 KA relative to UGCAUGU
